The source of these data is publication PMC4336329 (PLoS ONE, 2015).

Screen size: about 310,000 compounds; about 2,200 (0.71%) showed an effect of 50% or more. Effects have a minus sign here. The list shows a part of the results.

The target in this test is human ether-à-go-go-related gene (hERG) potassium channel (human, UniProt Q12809). As to the kind of experiment: primary screen, population patch clamp on CHO cells stably expressing hERG.
Sequence of human ether-à-go-go-related gene (hERG) potassium channel (Q12809 whole entry, looked up): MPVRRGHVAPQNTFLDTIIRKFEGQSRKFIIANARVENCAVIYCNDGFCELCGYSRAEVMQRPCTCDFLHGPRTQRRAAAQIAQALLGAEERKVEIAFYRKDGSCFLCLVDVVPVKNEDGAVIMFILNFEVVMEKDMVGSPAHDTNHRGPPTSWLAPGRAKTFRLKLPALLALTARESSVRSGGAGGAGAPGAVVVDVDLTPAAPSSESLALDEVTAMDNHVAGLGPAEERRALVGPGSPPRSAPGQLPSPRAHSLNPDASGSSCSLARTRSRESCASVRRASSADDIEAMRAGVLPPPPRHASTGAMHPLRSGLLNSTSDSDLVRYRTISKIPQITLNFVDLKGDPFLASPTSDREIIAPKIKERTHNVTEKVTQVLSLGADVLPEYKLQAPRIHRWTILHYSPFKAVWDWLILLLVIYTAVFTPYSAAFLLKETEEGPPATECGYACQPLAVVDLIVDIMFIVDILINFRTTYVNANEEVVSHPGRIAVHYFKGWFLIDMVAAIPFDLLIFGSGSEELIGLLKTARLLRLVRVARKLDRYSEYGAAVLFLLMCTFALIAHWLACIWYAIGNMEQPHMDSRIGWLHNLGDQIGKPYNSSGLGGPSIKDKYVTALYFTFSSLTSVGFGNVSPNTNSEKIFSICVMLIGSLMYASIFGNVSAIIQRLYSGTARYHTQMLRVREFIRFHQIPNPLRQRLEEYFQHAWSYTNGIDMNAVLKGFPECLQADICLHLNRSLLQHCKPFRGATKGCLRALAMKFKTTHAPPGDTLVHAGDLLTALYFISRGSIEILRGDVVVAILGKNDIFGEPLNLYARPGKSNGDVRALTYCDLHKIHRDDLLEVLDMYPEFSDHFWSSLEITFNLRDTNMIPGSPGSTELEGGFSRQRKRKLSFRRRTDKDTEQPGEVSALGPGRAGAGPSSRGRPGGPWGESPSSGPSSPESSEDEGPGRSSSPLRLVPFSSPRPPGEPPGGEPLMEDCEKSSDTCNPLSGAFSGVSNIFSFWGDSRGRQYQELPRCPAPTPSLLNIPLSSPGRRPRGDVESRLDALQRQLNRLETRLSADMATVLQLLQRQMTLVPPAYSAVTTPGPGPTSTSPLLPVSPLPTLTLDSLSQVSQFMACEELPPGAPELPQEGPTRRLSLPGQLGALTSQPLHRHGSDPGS
For `O=C(c1cc(Cl)ccc1Cl)N1CCOCC1`, the “hERG current change (%, negative = inhibition) at 1uM” value is recorded as 14.6%. The figure for `COC(CNC(=O)C1CCCN(S(=O)(=O)c2ccc3c(c2)oc(=O)n3C)C1)OC` (stereo not drawn) is 14.1%; for `Cc1c(NS(=O)(=O)c2ccccc2)c(=O)n(-c2ccccc2)n1C` it is 20.8%; for `COc1ccc(CCCc2nnc(SCc3nc4ccccc4c(=O)[nH]3)n2C)c(C)c1` it is -10.2%. The figure for `CCc1cccc(C)c1NC(=O)COC(=O)CNC(=O)c1cccs1` is 15.1%; for `O=C(O)c1ccc(Nc2nc(-c3ccc([N+](=O)[O-])cc3)nc3ccccc23)cc1` it is 14.5%. The same measure for `O=C(COC(=O)CSc1ccc([N+](=O)[O-])cc1)NCCC1=CCCCC1`: 10.7%. Consider `Cn1nc([N+](=O)[O-])nc1Oc1ccccc1N`, for which the “hERG current change (%, negative = inhibition) at 1uM” value is reported as 9.33%. The same measure for `CCn1cc(/C=N/N=C2\CCC3C4CCc5cc(O)ccc5C4CC[C@]23C)c(C)n1` (stereo partly drawn): 0.859%; for `COc1ccc(CNC(=O)CN(c2ccc(C(C)C)cc2)S(=O)(=O)c2c(C)noc2C)cc1`: 19.9%; for `Fc1ccc(NC(=S)NCc2ccccc2)cc1`: 10.4%.

With `Cc1ccccc1N1CCN(C(=S)c2ccc(-c3cccc([N+](=O)[O-])c3)o2)CC1`, the “hERG current change (%, negative = inhibition) at 1uM” value stood at 14.8%. Turning to `COc1cccc2sc(N(CCCN(C)C)C(=O)COc3ccc(Cl)cc3)nc12.Cl`, the “hERG current change (%, negative = inhibition) at 1uM” value is reported as -68.9%. The figure for `Cc1cc(-c2ccccc2)c(C#N)c(SCC(N)=O)n1` is 4.39%; for `O=c1c2ccccc2nc2n1C(CSc1ccc(Br)cc1)CN2` (stereo not drawn) it is 2.38%; for `Fc1ccc(-n2nnc(-c3ccccc3Br)n2)cc1` it is 8.84%.

`Cl.NCCc1ccc(OCc2ccccc2)c(OCc2ccccc2)c1`: the “hERG current change (%, negative = inhibition) at 1uM” value came out at 4.25%. The figure for `COc1cc(OC)c(C(=O)Nc2cccc3ccccc23)cc1OC` is 15.7%; for `CCc1noc(C)c1C(=O)N1CCN(S(=O)(=O)c2c(C)c(C)cc(C)c2C)CC1` it is 8.76%.

Regarding `COCc1ccc(C(=O)N2CCCCC2C(=O)Nc2ccc(-n3nc(C)cc3C)cc2)o1` (stereo not drawn), the “hERG current change (%, negative = inhibition) at 1uM” value was 9.86%.

With `Cn1c(N)c(C(=O)COC(=O)/C=C/c2ccc(OC(F)F)cc2)c(=O)n(C)c1=O`, the “hERG current change (%, negative = inhibition) at 1uM” value came out at 20.4%. The figure for `CCOC(=O)c1ccc(NC(=O)C2CC3CCC2C3)cc1` (stereo not drawn) is 8.73%; for `CN(C(=O)COC(=O)c1ccccc1NC(=O)c1ccco1)C1CCS(=O)(=O)C1` (stereo not drawn) it is -6.78%. The figure for `Cc1ccc(CSCCNC(=O)CN2C(=O)c3ccccc3S2(=O)=O)cc1` is 8.76%.
